From a collection of fitness landscapes (doi:10.1126/science.1257360)
The list shows a part of the results.

B1: PhoQ; a variant is named by its letters at X, in order, P23837 (parent)
chain: MKKLLRLFFPLSLRVRFLLATAAVVLVLSLAYGMVALIGYSVSFDKTTFRLLRGESNLFYTLAKWENNKLHVELPENIDKQSPTMTLIYDENGQLLWAQRDVPWLMKMIQPDWLKSNGFHEIEADVNDTSLLLSGDHSIQQQLQEVREDDDDAEMTHSVAVNVYPATSRMPKLTIVVVDTIPVELKSSYMVWSWFIYVLSANLLLVIPLLWVAAWWSLRPIEALAKEVRELEEHNRELLNPATTRELTSLVRNLNRLLKSERERYDKYRTTLTDLTHSLKTPLXXLQXXLRSLRSEKMSVSDAEPVMLEQISRISQQIGYYLHRASMRGGTLLSRELHPVAPLLDNLTSALNKVYQRKGVNISLDISPEISFVGEQNDFVEVMGNVLDNACKYCLEFVEISARQTDEHLYIVVEDDGPGIPLSKREVIFDRGQRVDTLRPGQGVGLAVAREITEQYEGKIVAGESMLGGARMEVIFGRQHSAPKDE

Variants of: B1
Test: enrichment ratio after two sorts for PhoP signalling (ratio (wild type AVST 3.29)); higher = more functional
Conditions: with PhoP (E. coli)

Variant | enrichment ratio
FCPK | ≤ 0.25
SVFY | ≤ 0.25
KMIT | ≤ 0.25
GAVF | ≤ 0.25
WIHN | ≤ 0.25
FNKN | ≤ 0.25
NIAW | ≤ 0.25
IRNF | ≤ 0.25
DHVW | ≤ 0.25
HYWH | ≤ 0.25
HHGP | ≤ 0.25
AKKP | ≤ 0.25
TVHL | 3.57
YFDA | ≤ 0.25
KLFH | ≤ 0.25
PTMV | ≤ 0.25
SKHV | ≤ 0.25
WKPT | ≤ 0.25
DCQM | ≤ 0.25
MAAN | 14.7
ITFG | ≤ 0.25
SCLT | 13.3
KLMI | ≤ 0.25
RCSG | ≤ 0.25
FCVQ | ≤ 0.25

Variant | enrichment ratio
PNFY | ≤ 0.25
QPYF | ≤ 0.25
IKPT | ≤ 0.25
AMPS | ≤ 0.25
IRYS | ≤ 0.25
KIWI | ≤ 0.25
HWNW | ≤ 0.25
MKMG | ≤ 0.25
AKGI | ≤ 0.25
HDCM | ≤ 0.25
LFTW | ≤ 0.25
AGRH | ≤ 0.25
NGPW | ≤ 0.25
FKYK | ≤ 0.25
HCSL | ≤ 0.25
LEIV | ≤ 0.25
WGCR | ≤ 0.25
LCHC | ≤ 0.25
HTTQ | ≤ 0.25
PEAV | ≤ 0.25
FTGP | ≤ 0.25
YHPP | ≤ 0.25
IYHS | ≤ 0.25
PFAM | ≤ 0.25
IRVY | ≤ 0.25

Variant | enrichment ratio
KCKV | ≤ 0.25
MMQA | ≤ 0.25
RGCD | ≤ 0.25
HDFV | ≤ 0.25
TPPR | ≤ 0.25
YAHT | ≤ 0.25
WAAK | ≤ 0.25
IQHR | ≤ 0.25
RRKN | ≤ 0.25
DWRS | ≤ 0.25
GHNW | ≤ 0.25
YGKT | ≤ 0.25
PTLV | ≤ 0.25
RNYE | ≤ 0.25
VEPQ | ≤ 0.25
NCIR | ≤ 0.25
HLTM | ≤ 0.25
KVLI | ≤ 0.25
QHRC | ≤ 0.25
FLID | ≤ 0.25
PLRY | ≤ 0.25
WCIK | ≤ 0.25
RLAH | ≤ 0.25
AQSE | 2.99
AFPF | ≤ 0.25

Variant | enrichment ratio
FRVE | ≤ 0.25
DNQF | ≤ 0.25
PYAD | ≤ 0.25
MPIF | ≤ 0.25
VVLG | 1.27
ICER | ≤ 0.25
DCTD | ≤ 0.25
ETGR | ≤ 0.25
LLWQ | ≤ 0.25
NSYH | ≤ 0.25
PQEP | ≤ 0.25
VMQS | ≤ 0.25
WKFM | ≤ 0.25
WPLC | ≤ 0.25
QETG | ≤ 0.25
NRTS | ≤ 0.25
SKYP | ≤ 0.25
AEIW | ≤ 0.25
YEMT | 1.98
IHFK | ≤ 0.25
SYLV | 0.334
TVHV | 2.67
FNMQ | ≤ 0.25
VHVC | ≤ 0.25
SHAW | ≤ 0.25

Variant | enrichment ratio
HCLS | ≤ 0.25
RVDC | ≤ 0.25
NWTF | ≤ 0.25
EVKR | ≤ 0.25
NCFA | ≤ 0.25
IWSN | ≤ 0.25
QKQI | ≤ 0.25
QTGM | 12
LPSL | ≤ 0.25
PREQ | ≤ 0.25
KVDW | ≤ 0.25
AKMP | ≤ 0.25
VALV | 7.72
ETEV | ≤ 0.25
SNEV | ≤ 0.25
VVYF | ≤ 0.25
PERC | ≤ 0.25
DQQF | ≤ 0.25
HEFS | ≤ 0.25
GKGL | ≤ 0.25
HASV | ≤ 0.25
DVVH | ≤ 0.25
QNLE | ≤ 0.25
KSFM | ≤ 0.25
ERVI | ≤ 0.25

Variant | enrichment ratio
MRTY | ≤ 0.25
RDET | ≤ 0.25
QTLM | ≤ 0.25
VYFT | ≤ 0.25
NMWF | ≤ 0.25
NIRF | ≤ 0.25
QYWN | 0.285
VNFH | ≤ 0.25
ENHY | ≤ 0.25
IHSQ | ≤ 0.25
FEGC | ≤ 0.25
MMKR | ≤ 0.25
YLVN | ≤ 0.25
PMHK | ≤ 0.25
HSTG | ≤ 0.25
LWLT | ≤ 0.25
HFDC | ≤ 0.25
VRRL | ≤ 0.25
QFGD | ≤ 0.25
HDWV | ≤ 0.25
ANGI | 22.1
ENLY | ≤ 0.25
KDLN | ≤ 0.25
PIRR | ≤ 0.25
DELW | ≤ 0.25

Variant | enrichment ratio
SSVL | 13.8
PHMG | ≤ 0.25
FFKF | ≤ 0.25
AEQN | 21.7
LTYF | ≤ 0.25
YKFG | ≤ 0.25
FQLC | 2.14
GPGG | ≤ 0.25
FRYN | ≤ 0.25
RQWN | ≤ 0.25
RGVY | ≤ 0.25
HKWA | ≤ 0.25
QEVP | ≤ 0.25
PVLQ | ≤ 0.25
PPYH | ≤ 0.25
AFLH | ≤ 0.25
IYMD | ≤ 0.25
NRKS | ≤ 0.25
WEML | ≤ 0.25
GQNA | ≤ 0.25
PHYM | ≤ 0.25
RLGN | ≤ 0.25
QERT | ≤ 0.25
MKSS | ≤ 0.25
DSLA | ≤ 0.25

Variant | enrichment ratio
GVLG | 8.66
GYKS | ≤ 0.25
YKQG | ≤ 0.25
HNVV | ≤ 0.25
GTTY | 0.902
WFTF | ≤ 0.25
LFEK | ≤ 0.25
NVLP | ≤ 0.25
WDQN | ≤ 0.25
QDYH | ≤ 0.25
VSSK | ≤ 0.25
DNFY | ≤ 0.25
RMIC | ≤ 0.25
MDAL | ≤ 0.25
KEIY | ≤ 0.25
YYYN | ≤ 0.25
VCRD | ≤ 0.25
TKVG | 1.43
VYDA | ≤ 0.25
KMHC | ≤ 0.25
